Experiment [1] has as its target T1, PD-1 on 293T-PD1 membrane surface (full-length human PD-1 on cells) (human, UniProt Q15116 25-288). The experiment is described as follows: cell-based or functional assay.
Experiment [2] deals with T1, PD-1 on 293T-PD1 membrane surface …. Kind of experiment: cell-based or functional assay. This is another data set of the same source.
Experiment [3] concerns the target T2, LAG3 on 293T-LAG3 membrane surface (full-length human LAG3 on cells) (human, UniProt P18627 23-525).
T2 sequence (looked up): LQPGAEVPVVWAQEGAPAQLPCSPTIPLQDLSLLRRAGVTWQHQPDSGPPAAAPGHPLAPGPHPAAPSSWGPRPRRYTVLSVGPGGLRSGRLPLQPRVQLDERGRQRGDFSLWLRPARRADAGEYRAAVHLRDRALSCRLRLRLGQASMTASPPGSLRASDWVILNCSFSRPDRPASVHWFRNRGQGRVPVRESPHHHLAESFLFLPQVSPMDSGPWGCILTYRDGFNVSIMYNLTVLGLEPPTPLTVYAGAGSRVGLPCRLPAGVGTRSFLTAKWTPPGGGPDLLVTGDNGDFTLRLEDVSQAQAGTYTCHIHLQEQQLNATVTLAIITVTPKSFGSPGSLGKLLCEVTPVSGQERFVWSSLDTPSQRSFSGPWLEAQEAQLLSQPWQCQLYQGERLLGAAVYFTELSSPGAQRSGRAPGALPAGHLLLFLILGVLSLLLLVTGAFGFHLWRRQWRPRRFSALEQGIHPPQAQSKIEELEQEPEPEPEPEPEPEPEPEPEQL
Kind of experiment: cell-based or functional assay.

In another experiment the target is T3, FcγRIIIa_F158 (UniProt P08637 partial chain, limits assumed).
T3 construct: Construct not described
Kind of experiment: BLI (Fortebio Octet), FcγRIIIa_F158 on HIS1K sensor, antibody in solution. Here is the method: (§1) The data were analyzed by 1:1 model fitting to obtain affinity constants.

The target in the next experiment is T4, FcγRIIa_H131 (UniProt P12318 34-218).
T4 construct: Construct not described
T4 sequence (looked up): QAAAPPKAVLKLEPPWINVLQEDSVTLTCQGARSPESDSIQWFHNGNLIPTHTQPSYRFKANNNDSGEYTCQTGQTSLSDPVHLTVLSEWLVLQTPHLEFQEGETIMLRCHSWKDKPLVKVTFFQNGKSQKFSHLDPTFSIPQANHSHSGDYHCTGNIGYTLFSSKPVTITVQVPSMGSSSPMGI
The experiment is described as follows: BLI (Fortebio Octet), FcγRIIa_H131 on NTA sensor, antibody in solution. Here is the method: as §1

The next experiment concerns the target T5, C1q (UniProt P02745; P02746; P02747).
T5 construct: the three subunits are from general knowledge; also called serum complement C1q
The experiment is described as follows: BLI (Fortebio Octet), antibody on FAB2G sensor, C1q in solution. Here is the method:
The data were analyzed by 1:1 model fitting to obtain affinity constants. The data acquisition software was Fortebio Data Acquisition 7.0, and the data analysis software was Fortebio Data Analysis 7.0.

In another experiment the target is T6, FcγRIIIa_V158 (UniProt P08637 partial chain, limits assumed).
T6 construct: Construct not described
Kind of experiment: BLI (Fortebio Octet), FcγRIIIa_V158 on HIS1K sensor, antibody in solution. Here is the method:
The sensor was equilibrated in a buffer for 60 s, and the binding of the immobilized FcγRIIIa_V158 on the sensor to the antibodies at concentrations of 31.25-500 nM (serial two-fold dilution) was determined for 60 s. […] The data were analyzed by 1:1 model fitting to obtain affinity constants.

For the next experiment, the target named is T7, human PD-1-mFc (human, UniProt Q15116 partial chain, limits assumed).
T7 construct: not shown: mouse IgG Fc (mFc)
Kind of experiment: indirect ELISA, coated human PD-1-mFc. Here is the method:
Then the ELISA plate coated with the antigen was washed once with PBST and then blocked with a PBS solution containing 1% BSA as a blocking solution at 37° C. for 2 h. After blocking, the ELISA plate was washed 3 times with PBST. The ELISA plate containing the test antibodies was incubated at 37° C. for 30 min and then washed 3 times with PBST.
After incubation, the plate was washed 4 times with PBST, TMB (Neogen, 308177) was added for chromogenesis in the dark for 5 min, and then a stop solution was added to terminate the chromogenic reaction. The ELISA plate was put into an ELISA plate reader immediately, and the OD value of each well in the ELISA plate was read at 450 nm. The data were analyzed and processed by SoftMax Pro 6.2.1.

In experiment [4] the target is T2, LAG3 on 293T-LAG3 membrane surface …. Kind of experiment: flow cytometry on 293T-LAG3 cells. As to the method:
100 μL of 1% PBSA was then added to each well, and the mixture was centrifuged at 350×g for 5 min, followed by removal of the supernatant. […] 100 μL of 1% PBSA was added to each well, and the mixture was centrifuged at 350×g for 5 min, followed by removal of the supernatant. Then the plate was washed twice with 200 μL of 1% PBSA. […] The mixture was mixed well and then incubated on ice in the dark for 0.5 h. […] Then the plate was washed twice with 200 μL of 1% PBSA.

The target in experiment [5] is T1, PD-1 on 293T-PD1 membrane surface …. The experiment is described as follows: competitive flow cytometry on 293T-PD1 cells, competitor PDL-1-mFc 20 nM. As to the method:
1. […] 100 μL of 1% PBSA was then added to each well, and the mixture was centrifuged and washed. […] 100 μL of a 400-fold diluted FITC goat anti-mouse IgG/IgM antibody (BD, Cat. No. 555988) was added, while 100 μL of 1% PBSA was added for a blank sample. The mixture was mixed well, incubated on ice in the dark for 30 min, washed, and centrifuged. The cells were resuspended and then transferred to a sample loading tube for testing on a flow cytometer.

The target in the next experiment is T8, FcγRI (UniProt P12314 16-288, limits assumed).
T8 construct: Bought protein; construct not described; also called CD64
Kind of experiment: BLI (Fortebio Octet), FcγRI on HIS1K sensor, antibody in solution. Here is the method:
as §1

This note sets out measurements from patent US20240392040A1 (AKESO HUIKE SHANGHAI, published 2024).

Sequence of FcγRIIIa_V158 (P08637 17-208 F176V limits assumed): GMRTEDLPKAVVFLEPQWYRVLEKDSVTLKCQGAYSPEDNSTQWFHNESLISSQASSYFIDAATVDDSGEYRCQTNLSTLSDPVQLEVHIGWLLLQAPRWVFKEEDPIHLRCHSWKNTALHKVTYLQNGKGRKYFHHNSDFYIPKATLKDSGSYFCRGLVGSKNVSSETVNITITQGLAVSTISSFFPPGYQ
Sequence of C1q (P02745 23-245 limits assumed, chain 1 of 3): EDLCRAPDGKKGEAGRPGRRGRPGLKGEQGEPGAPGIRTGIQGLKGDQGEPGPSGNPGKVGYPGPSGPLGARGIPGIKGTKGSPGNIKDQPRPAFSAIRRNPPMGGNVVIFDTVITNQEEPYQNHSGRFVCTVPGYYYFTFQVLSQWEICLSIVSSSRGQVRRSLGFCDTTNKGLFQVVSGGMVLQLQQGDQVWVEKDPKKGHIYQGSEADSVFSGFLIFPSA
Sequence of C1q (P02746 28-253 limits assumed, chain 2 of 3, further chain): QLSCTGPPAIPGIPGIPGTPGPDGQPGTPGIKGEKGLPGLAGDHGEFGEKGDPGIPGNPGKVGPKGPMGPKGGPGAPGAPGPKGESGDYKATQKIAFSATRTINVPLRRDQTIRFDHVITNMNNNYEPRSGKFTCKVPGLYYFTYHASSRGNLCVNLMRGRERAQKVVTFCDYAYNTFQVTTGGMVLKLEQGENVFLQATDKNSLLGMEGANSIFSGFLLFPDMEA
Sequence of C1q (P02747 29-245 limits assumed, chain 3 of 3, further chain): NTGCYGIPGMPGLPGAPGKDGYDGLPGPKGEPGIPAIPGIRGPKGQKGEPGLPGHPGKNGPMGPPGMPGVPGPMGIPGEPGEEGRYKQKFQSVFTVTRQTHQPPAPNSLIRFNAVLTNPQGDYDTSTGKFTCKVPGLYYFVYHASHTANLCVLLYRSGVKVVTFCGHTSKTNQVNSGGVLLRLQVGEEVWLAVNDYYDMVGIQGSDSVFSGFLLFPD
Sequence of FcγRI (P12314 16-288 limits assumed): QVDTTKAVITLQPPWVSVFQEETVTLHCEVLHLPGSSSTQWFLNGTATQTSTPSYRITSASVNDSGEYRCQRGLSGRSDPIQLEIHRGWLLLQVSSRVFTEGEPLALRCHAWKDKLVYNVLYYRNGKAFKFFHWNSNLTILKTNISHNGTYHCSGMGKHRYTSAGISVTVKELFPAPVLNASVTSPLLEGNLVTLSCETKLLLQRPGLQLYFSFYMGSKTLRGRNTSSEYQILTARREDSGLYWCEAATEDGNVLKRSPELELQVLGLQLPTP
Sequence of FcγRIIIa_F158 (P08637 17-208 limits assumed): as the sequence (P08637 17-208 F176V limits assumed) above, with V160F counted along it
Sequence of human PD-1-mFc (Q15116 25-170 limits assumed): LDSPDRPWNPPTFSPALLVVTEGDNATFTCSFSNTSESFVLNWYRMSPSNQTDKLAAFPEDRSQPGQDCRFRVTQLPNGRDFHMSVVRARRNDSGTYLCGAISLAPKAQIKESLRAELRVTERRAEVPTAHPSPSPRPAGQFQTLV

B1: BS-PL022B (bispecific antibody, human IgG1, kappa)
heavy: QVQLQQWGAGLLKPSETLSLTCAVYGGSISDYYWNWIRQPPGKGLEWIGEINHRGTTNSNPSLKSRVTLSLDTSKNQFSLKLRSVTAADTAVYYCAFGYSDYEYDWFDPWGQGTLVTVSSASTKGPSVFPLAPSSKSTSGGTAALGCLVKDYFPEPVTVSWNSGALTSGVHTFPAVLQSSGLYSLSSVVTVPSSSLGTQTYICNVNHKPSNTKVDKKV[skipping human IgG1 Fc with L234A L235A G237A (EU numbers)]GGGGSGGGGSGGGGSGGGGSEVQLVESGGGLVQPGGSLRLSCAASGFAFSSYDMSWVRQAPGKGLDWVATISGGGRYTYYPDSVKGRFTISRDNSKNNLYLQMNSLRAEDTALYYCANRYGEAWFAYWGQGTLVTVSSGGGGSGGGGSGGGGSGGGGSDIQMTQSPSSMSASVGDRVTFTCRASQDINTYLSWFQQKPGKSPKTLIYRANRLVSGVPSRFSGSGSGQDYTLTISSLQPEDMATYYCLQYDEFPLTFGAGTKLELKR
light: EIVLTQSPATLSLSPGERATLSCRASQTISSYLAWYQQKPGQAPRLLIYDASNRATGIPARFSGSGSGTDFTLTISSLEPEDFAVYYCQQRSNWPITFGQGTNLEIKRTVAAPSVFIFPPSDEQLKSGTASVVCLLNNFYPREAKVQWKVDNALQSGNSQESVTEQDSKDSTYSLSSTLTLSKADYEKHKVYACEVTHQGLSSPVTKSFNRGEC
notes: Morrison form (IgG-scFv): an scFv at the C-terminus of each of the two heavy chains
B1: in experiment [1], the “EC50 (nM), luciferase reporter (RLU), PD1 effector cells + PDL1 aAPC/CHO-K1 cells” value turned out to be 20 nM. Moreover, the “EC50 (nM), luciferase reporter (RLU), Jurkat-NFAT-PD1-LAG3 cells + SEE-treated Raji-PDL1 cells” value in experiment [2] and in experiment [3] was 16.2 nM throughout. Moreover, the binding result in the experiment with FcγRIIIa_F158, with FcγRIIa_H131, with C1q, in the experiment with FcγRIIIa_V158 and with FcγRI was “no binding” in each case. In addition, the results for the EC50 (in the experiment with human PD-1-mFc; in experiment [4]; in experiment [5]) were 0.074 nM, 3.21 nM and 5.12 nM, respectively.
